Test results taken from article PMC4336329 (PLoS ONE, 2015).
Among all 310,000 compounds or so, about 14,000 (4.5%) showed an effect of 50% or more. The effect is printed as a negative number. This is one part of the list.

Molecular target: human ether-à-go-go-related gene (hERG) potassium channel (human, UniProt Q12809)
Assay: primary screen, population patch clamp on CHO cells stably expressing hERG
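Also: peak tail current of the secondary pulse compared with the same well before compound.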

Chain of human ether-à-go-go-related gene (hERG) potassium channel (Q12809 whole entry, looked up): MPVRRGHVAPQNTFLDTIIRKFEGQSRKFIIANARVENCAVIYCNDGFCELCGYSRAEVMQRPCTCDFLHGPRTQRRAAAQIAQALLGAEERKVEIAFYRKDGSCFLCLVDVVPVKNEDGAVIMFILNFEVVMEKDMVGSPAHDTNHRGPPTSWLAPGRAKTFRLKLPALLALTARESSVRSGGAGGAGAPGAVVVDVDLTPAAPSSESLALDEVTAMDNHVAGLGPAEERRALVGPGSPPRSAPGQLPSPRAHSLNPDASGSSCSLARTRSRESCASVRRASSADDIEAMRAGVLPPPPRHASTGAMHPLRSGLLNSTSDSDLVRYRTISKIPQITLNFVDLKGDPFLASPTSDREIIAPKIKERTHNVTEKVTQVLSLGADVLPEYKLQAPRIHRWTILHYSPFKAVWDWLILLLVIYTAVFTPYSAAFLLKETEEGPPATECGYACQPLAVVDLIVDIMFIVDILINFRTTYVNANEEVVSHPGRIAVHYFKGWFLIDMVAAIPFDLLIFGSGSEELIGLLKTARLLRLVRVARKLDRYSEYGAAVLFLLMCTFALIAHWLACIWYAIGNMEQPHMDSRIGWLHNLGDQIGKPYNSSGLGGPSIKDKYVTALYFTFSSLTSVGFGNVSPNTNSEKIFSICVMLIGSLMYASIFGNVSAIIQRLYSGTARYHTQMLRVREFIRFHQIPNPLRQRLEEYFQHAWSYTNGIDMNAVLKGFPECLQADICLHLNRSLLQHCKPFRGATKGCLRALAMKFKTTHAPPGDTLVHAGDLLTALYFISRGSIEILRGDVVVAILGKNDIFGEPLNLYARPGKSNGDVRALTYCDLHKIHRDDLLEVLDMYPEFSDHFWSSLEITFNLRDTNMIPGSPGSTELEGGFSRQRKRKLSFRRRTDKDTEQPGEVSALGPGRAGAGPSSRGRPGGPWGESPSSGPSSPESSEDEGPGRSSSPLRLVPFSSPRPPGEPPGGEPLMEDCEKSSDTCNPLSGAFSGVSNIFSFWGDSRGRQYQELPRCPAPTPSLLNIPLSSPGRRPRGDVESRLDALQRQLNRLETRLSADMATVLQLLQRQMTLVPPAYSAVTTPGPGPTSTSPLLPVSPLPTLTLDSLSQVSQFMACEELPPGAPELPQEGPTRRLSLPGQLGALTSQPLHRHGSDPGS

SMILES	hERG current change (%, negative = inhibition) at 10uM [%]
CCOc1ccc(C(Nc2cccnc2)c2cc(Cl)c3cccnc3c2O)cc1 (stereo not shown)	21.8
O=[N+]([O-])c1ccc(-n2cccn2)c(-c2nn[nH]n2)c1	22.4
O=C(c1ccccc1Br)N1CCN(c2ccc([N+](=O)[O-])c(N3CCOCC3)c2)CC1	-11.5
C=CCn1c(SC(C)C(=O)Nc2ccc(F)c(F)c2F)nnc1C1CC1 (stereo not shown)	-36.8
CN1CCN(CCCN(Cc2ccco2)C(=S)Nc2ccc(Cl)cc2)CC1	-69.6
COc1ccc(OC)c(C2C(C(=O)Nc3cccnc3)=C(C)NC3=C2C(=O)CCC3)c1 (stereo not shown)	9.63
COc1ccc(C2C(=O)c3ccccc3C2=O)cc1	0.785
O=C(CCC(=O)c1ccc[nH]1)c1ccc(Cl)cc1	-5.4
Cc1cc(C)cc(N(C(=O)c2nsc(Cl)c2Cl)C(C(=O)NC2CCCC2)c2ccc(O)cc2)c1 (stereo not shown)	-5.78
O=C(COc1ccccc1[N+](=O)[O-])NCC1(N2CCCCC2)CCCCC1	-43.2
CCCCC(=O)Nc1ccc(C)c(O)c1	11.9
CN(C)CCCNc1oc(-c2ccccc2Cl)nc1S(=O)(=O)c1ccc(F)cc1	-59.9
Cc1cccc(C(=O)NC(=S)N2CCc3ccccc3C2)c1	17.7
CC(C)CC(=O)Nc1nnc(S(=O)(=O)N2CCc3ccccc32)s1	-6.97
CC(CCc1ccccc1)NC(=O)c1ccccc1C(=O)O (stereo not shown)	8.15
O=C(N/N=C/c1ccccn1)c1ccc2nc[nH]c2c1	4.95
Cc1ccnc(NS(=O)(=O)c2cccc3nsnc23)c1.Cl	6.56
Cc1ccccc1-n1c(-c2ccc(Cl)cc2)cnc1SCC(=O)NC1CCS(=O)(=O)C1 (stereo not shown)	-28.7
CCN(C(=O)Cn1cnc2c1c(=O)n(C)c(=O)n2C)C1CCCCC1	3.34
CN(C)c1ccc(-c2nn3c(C4CCCCC4)nnc3s2)cc1	-0.527
CCOC(=O)c1c(NC(=O)CSc2nnc(-c3c[nH]c4ccccc34)n2CCOC)sc2c1CCCCC2	6.17
COc1cc(OC)c(-c2cc(C(=O)O)ccc2OC)c(OC)c1	22.3

SMILES	hERG current change (%, negative = inhibition) at 10uM [%]
COc1ccc(N2CC(C(=O)Nc3cccnc3)CC2=O)cc1 (stereo not shown)	10.1
Cc1ccc(C(=O)Nc2ccccc2-c2ccccc2)cc1S(=O)(=O)Nc1cccc(C)c1C	7.65
Cc1ccc(OCC(O)Cn2c(N3CCCCC3)nc3c2c(=O)[nH]c(=O)n3C)cc1C (stereo not shown)	16
S=c1[nH]c2ccccc2n2cccc12	14.1
Cc1ccc(C(CC(=O)N2CCCC2)c2ccccc2)c(O)c1C (stereo not shown)	-57.9
O=C(N/N=C/c1ccccn1)c1ccc(Br)cc1	-26.8
CCOc1cccc(NC(=O)C(Cc2cccs2)c2nn[nH]n2)c1 (stereo not shown)	4.63
Cc1ccc(C)c(N2N=C(C(=O)Nc3nccs3)CCC2=O)c1	15.5
COc1cc(C(=O)OCC(=O)c2c[nH]c3ccccc23)ccc1OCC(=O)N1CCOCC1	5.92
COc1cc(NC(=O)C2CCCN(S(=O)(=O)c3ccc4c(c3)CCCN4C(C)=O)C2)cc(OC)c1 (stereo not shown)	-17.5
COc1ccc(C(=O)C2CCCN(Cc3cccn3-c3ccccn3)C2)c(OC)c1 (stereo not shown)	-74.6
COc1ccc(OC(=O)c2cccc([N+](=O)[O-])c2)c(C(=O)/C=C/c2cccs2)c1	3.99
COc1ccc(N2CCN(C(=O)CCS(=O)(=O)c3ccc4c(c3)NC(=O)CO4)CC2)cc1	-6.77
COc1ccc(CCNc2ccc(C(CC(N)=O)NC(=O)Cc3cccc4ccccc34)cc2[N+](=O)[O-])cc1 (stereo not shown)	4.29
COc1ccc(/C=C/C(=O)NC(=S)N2CCN(c3ccccn3)CC2)cc1OC	3.87
Cc1ccc(C)c(CN2CCC(CNC(=O)Nc3ccc(F)c(Cl)c3)CC2)c1	-65
COc1cccc(C(C(=O)NC2CCCC2)N(Cc2ccco2)C(=O)c2ccco2)c1OC (stereo not shown)	-2.07
Cc1nn(Cc2ccc(Cl)cc2Cl)c(C)c1NC(=O)Cn1nc([N+](=O)[O-])c(Cl)c1C	1.33
CN(C)c1cccc(C(=O)NNC(=S)NC2CCCC2)c1	20.5
COc1ccc(-c2nc(C)c(C(C)=O)n2O)cc1OC	-1.15
Cn1c(=O)c2c(nc(Br)n2CCSc2nnnn2-c2ccccc2)n(C)c1=O	-25.2
Cc1nc(N)nc2c1CCCC2	13.9

SMILES	hERG current change (%, negative = inhibition) at 10uM [%]
CCOc1ccc(S(=O)(=O)Nc2ccc(OC)nc2)cc1	17.3
COC(=O)Nc1snnc1C	0.262
COc1ccc(CN2CCNC(=O)C2CC(=O)N(C)C2CCOCC2)c(F)c1 (stereo not shown)	10.6
O=C(OCC(=O)N1CCOCC1)c1ccccc1O	24.6
COc1cc(C(=O)OCC(=O)NC2CCCC2)cc(NC(=O)c2ccco2)c1OC	-11.7
CCCc1cc2c(cc1NC(=O)c1ccc(C(C)(C)C)cc1)OCO2	-13.8
O=C(c1cccc(N2CCCC2=O)c1)N1CCC2(CC1)OCCO2	8.83
Cc1ccc(N(Cc2ccc(C(=O)NC3CCCCC3)cc2)S(C)(=O)=O)cc1C	-3.26
Cn1c(=O)c2c(nc(N3CCc4ccccc4C3)n2C)n(C)c1=O	7.62
CCC(=O)NCCc1nc2cc(NC(=O)c3ccc(OC)cc3)ccc2n1C	10.5
CC(C)(C)SC(=O)CC1NS(=O)(=O)OCC1NC(=O)OCC(Cl)(Cl)Cl (stereo not shown)	16.5
COc1ccc(C2c3ccc4ccccc4c3Oc3ncn(CCO)c(=N)c32)cc1OC (stereo not shown)	-45.7
CN(CC/C=C1/c2ccccc2CSc2ccccc21)CCCO.Cl	-30.8
Cn1c(=O)[nH]c(=O)c2c1nc(Br)n2Cc1cccc(Br)c1	15.1
Cc1ccc(CSc2nnc(SCC(=O)N/N=C/C=C/c3ccco3)s2)cc1	-8.19
CC(CN(C)Cc1ccccc1)OC(=O)c1cccs1.Cl (stereo not shown)	-10.5
O=C1CC(N2CCOCC2)C(=O)N1Cc1ccc(N2CCCC2=O)cc1 (stereo not shown)	3.46
COc1cccc(-c2nc(CS(=O)CC(=O)NCCc3ccccc3)c(C)o2)c1 (stereo not shown)	-21
CSc1nc2nc(C)c(C/C=C/c3ccccc3)c(=O)n2[nH]1	10.2
Cc1cc2nc(CS(=O)(=O)c3ccccc3)cc(=O)n2[nH]1	18.1
Cc1cccc(/N=C/c2c(O)c3ccccc3oc2=O)n1	13.4
O=C(c1cccs1)N1C(=O)c2cccc3cccc1c23	11.7

SMILES	hERG current change (%, negative = inhibition) at 10uM [%]
CNC(=O)CCC(=O)Nc1ccc(C(=O)OC)cc1	7.77
O=C1CCCC(=O)N1c1ccc(NCCOCCO)c([N+](=O)[O-])c1	24
Cc1ccccc1OCC(=O)Nc1ccc2c(c1)n(C)c(=O)n2C	-6.39
NC(=O)c1c(NC(=O)CSc2nnc(-c3ccco3)n2N)sc2c1CCCC2	9.02
NS(=O)(=O)c1cnccc1Oc1cccc(Cl)c1	13.6
O=C(CCCC(=O)Nc1ccc(Br)cc1)N/N=C/c1ccccc1	7.69
O=C(Nc1ccc(-c2nc3ccccc3[nH]2)cc1)c1cccc(N2C(=O)CCC2=O)c1	0.66
O=C(NCCN1CCN(C(=O)C(c2ccccc2)c2ccccc2)CC1)C(=O)Nc1ccccc1	-19.4
CC(Sc1nc(-c2ccccc2)cc(C(F)(F)F)n1)C(=O)NCc1ccco1 (stereo not shown)	10.2
COc1ccccc1CC(=O)Nc1cccc(C(=O)NN2C(=O)c3ccccc3C2=O)c1	-1.2
Cc1ccc(S(=O)(=O)Cc2csc(N)n2)cc1	18.9
CC1=CC(C)C2C(=O)N(c3ccccc3)NC(=O)C2C1 (stereo not shown)	9.96
CCNS(=O)(=O)c1cccc(C(=O)c2c(C)cc3ccccn23)c1	3.98
COC(=O)c1ccccc1NC(=O)C/C(C)=N/NC(=O)Cc1ccc(Cl)cc1	14.1
CC(C)NCC(O)COCCOc1ccc(Br)cc1.Cl (stereo not shown)	-12.3
CN1CCN(/N=C/c2c(O)n(C)c(=O)n(C)c2=O)CC1	7.99
Cc1csc(NC(=O)CSc2nnnn2C)n1	9.26
Cc1ccccc1Cn1cc(C)c(=O)[nH]c1=O	-1.13
C=CCNC(=O)c1cc2c(=O)c3ccccc3oc2nc1C	-31.1
COC(=O)C1CN(C(=O)c2ccc(OC(F)F)cc2)c2ccccc2O1 (stereo not shown)	-27.5
Cc1noc(C)c1C(=O)OCC(=O)/C=C1\N(C)c2ccccc2C1(C)C	-0.0577
CC(=O)Nc1ccc(Nc2nnc(-c3ccc(O)cc3)c3ccccc23)cc1	10.2
